From PubChem BioAssay AID686979 (National Center for Advancing Translational Sciences (NCATS), 2013)
Where “and” joins values, the source holds several entries; their conditions need not be identical. Equal values may be shown once. About 50,000 (12%) of roughly 420,000 compounds were called active. Inconclusive results, whose numbers are uncertain, are shown with a selection of clear calls. Calls come from the whole dose curve; as a rule, active = well fitted inhibition curve with a large enough effect; inconclusive = small, poorly fitted or top-dose-only effect; inactive = flat fitted curve, though single readings scatter. Potencies of inconclusive entries are left out as doubtful fits.

assay: qHTS for Inhibitors of human tyrosyl-DNA phosphodiesterase 1 (TDP1): qHTS in cells in presence of CPT; conditions: chicken DT40 Tdp1-/-;hTDP1 cells + 20 nM CPT, ATP luminescence, 48 h; activity change, negative = growth inhibition: at 46.2 µM (top of the series) unless noted; note: nearly all actives have a fitted effect of over 55% in size
Summary of the method: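 Chicken DT40 Tdp1-/- cells stably complemented with human TDP1 were seeded at 400 cells/well in medium containing 20 nM camptothecin, exposed to pin-transferred compounds, and grown at 37 °C for at least 48 hr. Viability was read as ATP luminescence.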
% is set by controls: 0 for no effect and ±100 for the full control effect; potency is the fitted concentration of half-maximal effect; tags give direction and shape of the fitted curve.

Row | Compound | Potency | activity change, negative = growth inhibition
1 | Cc1ccc(-c2noc(=O)n2CC(=O)Nc2ccc(S(=O)(=O)NC3CC3)cc2)cc1 | inconclusive [inhibitor, partial curve] | –
2 | O=C(Nc1ccc(Cl)c(Cl)c1)c1ccco1 | inactive | –
3 | COc1ccc(C(=O)C2CCCN(Cc3ccc(F)cc3F)C2)cc1F (stereo unspecified) | inconclusive [inhibitor, single point] | –
4 | COc1ccccc1-n1c(O)c(/C=C2\C=Nc3ccccc32)c(=O)[nH]c1=O | – | inconclusive: -38.6% [inhibitor]
5 | O=C(C1CC(=O)N(C2CCCCC2)C1)N1CCC2(CC1)OCCO2 (stereo unspecified) | inactive | –
6 | COC(=O)C1=C(c2cccc(OCc3ccccc3)c2)C[C@@H]2CC[C@H]1N2C(=O)NCc1ccccc1OC | inconclusive [inhibitor, single point] | –
7 | COC(=O)C1=C(c2ccc(F)cc2OCc2ccccc2)C[C@@H]2CC[C@H]1N2C(=O)NCc1ccc(F)cc1 | inconclusive [inhibitor, single point] | –
8 | Cc1ccc(C(O)(c2ccc(C)c(C)c2)C2CN3CCC2CC3)cc1C (stereo unspecified) | active: 3.66 µM | –
9 | COC(=O)C(Cc1ccc(N(CCCl)CCCl)cc1)N=Cc1ccccc1O (stereo unspecified) | active: 0.116 µM | –
10 | COc1ccc(CNC(=O)/C=C\c2ccc3[nH]cc(CCN(C)C)c3c2)cc1 | inconclusive [inhibitor, single point] | –
11 | NC(=NCCc1ccc(I)cc1)SCCCc1cnc[nH]1 | active: 23.7 µM and active: 14.6 µM | –
12 | CCN1C[C@@]2(COC)C3[C@@H](OC)[C@H]4[C@@H]1[C@@]3(C1C[C@@]3(O)[C@H](OC(=O)c5ccccc5)C1[C@]4(OC(C)=O)[C@@H](O)[C@H]3OC)[C@@H](OC)C[C@H]2O (stereo partly specified) | inactive | –
13 | ClCCOCOCCCl | inactive | –
14 | CN1CCN(c2ccc([N+](=O)[O-])c(N3CCCCC3)c2)CC1 | inactive | –
15 | O=c1[nH]c2ccccc2n1C1CCN(Cc2ccc(-c3nc4ccccc4nc3-c3ccccc3)cc2)CC1 | active: 11.6 µM | –
16 | CC[C@H]1CN2CCc3cc(OC)c(OC)cc3[C@@H]2C[C@@H]1C[C@H]1NCCc2cc(OC)c(OC)cc21 | active: 188 nM and active: 146 nM | –
17 | Cc1ccc(N2C(=O)NC(=O)/C(=C\c3ccoc3)C2=O)cc1 | inconclusive [inhibitor, single point] | –
18 | CCOc1ccccc1CN1C2CCC1CC(c1ccc(C)cc1)C2 (stereo unspecified) | active: 23.1 µM | –
19 | COC(=O)C1=COC(C)C2CN3CCC4(C(=O)Nc5ccccc54)C3CC12 (stereo unspecified) | inconclusive [inhibitor, single point] | –
20 | OC1CCC(Nc2ccn3nc(-c4cccc(OCc5ccccc5)c4)cc3n2)CC1 (stereo unspecified) | inconclusive [inhibitor, single point] | –
21 | Cn1c(NN=O)nc2ccccc21 | inconclusive [inhibitor, single point] | –
22 | Cc1c(Cl)ccc2sc(N3CCN(C(=O)CCS(=O)(=O)c4ccc(F)cc4)CC3)nc12 | active: 0.58 µM | –
23 | O=C(CCC(=O)N1CCC2(CC1)OCCO2)Nc1nnc(C(F)(F)F)s1 | inactive | –
24 | COc1ccc(-c2nc3ccccc3c(=O)n2-c2ccc(OC)cc2)cc1 | inconclusive [inhibitor, single point] | –

Row | Compound | Potency | activity change, negative = growth inhibition
25 | O=C1NC(=O)C(=Cc2ccccc2[N+](=O)[O-])C(=O)N1 | active: 14.6 µM | –
26 | COc1cccc(CNCCc2ccccc2)c1OC | inactive | –
27 | N#CC1=C(N)Oc2c(c(=O)sc3ccccc23)C1c1ccncc1 (stereo unspecified) | inconclusive [inhibitor, single point] | –
28 | CCCCn1c(NC(=O)c2ccc(Br)o2)c(C(=O)OCC)c2nc3ccccc3nc21 | – | inconclusive: -30.6% [inhibitor]
29 | COc1cccc(C(c2nnnn2Cc2ccccc2)N2CCC3(CC2)C(=O)NCN3c2ccccc2)c1OC (stereo unspecified) | inconclusive [inhibitor, single point] | –
30 | CC(C)c1cc2c(c(O)c1O)[C@]1(C(=O)O)CCCC(C)(C)C1CC2 (stereo partly specified) | inconclusive [inhibitor, single point] | –
31 | CCc1cc(=O)oc2c(C)c(OCC(=O)N3C[C@H]4C[C@@H](C3)c3cccc(=O)n3C4)ccc12 | inactive | –
32 | CC(C)Oc1cccc(NC(=O)c2ccccc2C(F)(F)F)c1 | inconclusive [inhibitor, single point] | –
33 | CCC12CN3CC(CC)(CN(C1)C3c1c(C)[nH]c(=O)[nH]c1=O)C2=O (stereo unspecified) | inactive | –
34 | CCOP(=O)(c1ccccc1)c1nc(-c2ccc(F)cc2)oc1N1CCCCC1 (stereo unspecified) | active: 13 µM | –
35 | NCC(CC(=O)O)C1CCCCC1 (stereo unspecified) | inactive | –
36 | COc1cc(C[C@@H](C)N)c(OC)cc1Br | inconclusive [inhibitor, single point] | –
37 | CNC(=O)Oc1ccccc1C1CCCCC1 | inconclusive [inhibitor, single point] | –
38 | c1ccc(C2CC3CC4(CCCC4)N2O3)cc1 (stereo unspecified) | inactive | –
39 | N#Cc1ccc(Cn2cc(C(=O)c3ccco3)c3ccccc32)cc1 | inconclusive [inhibitor, single point] | –
40 | CC(C)C[C@H](NC(=O)[C@H](Cc1ccccc1)NC(=O)CNC(=O)[C@@H](NC(=O)[C@@H](N)Cc1ccc(O)cc1)[C@H](C)O)C(=O)N[C@H](C(=O)O)[C@H](C)O | – | inactive: -25.3% [at 4.12 µM]
41 | CCCCn1c(=O)c(C(=O)Nc2ccccc2)c(O)c2ccccc21 | active: 3.66 µM | –
42 | CC(C)CCOP(=O)(c1ccc(N(C)C)cc1)C(O)c1ccccc1 (stereo unspecified) | inconclusive [inhibitor, single point] | –
43 | CC1([N+](=O)[O-])COP(=O)(NC2CCCC2)OC1 (stereo unspecified) | inactive | –
44 | CCNC(C)Cc1cccc(C(F)(F)F)c1 (stereo unspecified) | inactive | –
45 | COC(=O)C1=C(c2ccc(Cl)c(C(F)(F)F)c2)C[C@@H]2CC[C@H]1N2C(=O)NC1CC1 | active: 14.6 µM | –
46 | CCOC(=O)CNC(=O)CNC(=O)C(Cc1ccc(N(CCCl)CCCl)cc1)NC(C)=O (stereo unspecified) | active: 1.3 µM | –
47 | O=C(c1ccoc1)N1CCCC(N2CCN(c3cccc(C(F)(F)F)c3)CC2)C1 (stereo unspecified) | inconclusive [inhibitor, single point] | –
48 | Cc1cccn2c(=O)c3c(nc12)N1CCC(Cc2ccccc2)CC1C1(C3)C(=O)N(C)C(=O)N(C)C1=O (stereo unspecified) | active: 18.4 µM | –

Row | Compound | Potency | activity change, negative = growth inhibition
49 | CCN(CC)C(=O)[C@@H]1C=C2c3cccc4[nH]cc(c34)C[C@H]2N(C)C1 | active: 40.1 µM | –
50 | CCOc1cc2c(cc1OCC)-n1cccc1C(c1ccc(C)cc1C)NC2 (stereo unspecified) | inconclusive [inhibitor, single point] | –
51 | O=c1c2ccccc2nc(/C=C/c2cccc3ccccc23)n1-c1ccc(Cl)cc1 | active: 20.6 µM | –
52 | CCCCCc1nc2ccccc2c(=O)n1-c1ccc(Cl)cc1[N+](=O)[O-] | inconclusive [inhibitor, single point] | –
53 | CCN(CC)C(=O)c1ccc(NC(=O)c2c(C)noc2C)cc1 | inactive | –
54 | COc1cccc(/C=C/c2nc(S(=O)(=O)c3ccccc3)c(N3CCC(C(N)=O)CC3)o2)c1 | inconclusive [inhibitor, partial curve] | –
55 | CN(C)C(Cc1ccc(Cl)cc1)C(=O)c1ccccc1 (stereo unspecified) | inactive | –
56 | Cn1c2ccccc2c2c(C(=O)N3CCC4(CC3)OCCO4)cn(C3CCCCC3)c(=O)c21 | inconclusive [inhibitor, single point] | –
57 | C#C[C@@]1(O)CCC2C3CCC4=C/C(=N/OCC(=O)NC(CCC(N)=O)C(=O)O)CC[C@]4(C)C3CC[C@@]21C (stereo partly specified) | inactive | –
58 | Cc1ccc(C(=O)n2c(N)nc3ccccc32)cc1 | inconclusive [inhibitor, single point] | –
59 | COc1ccccc1CNCc1cc(OC)c(OC)cc1OC | inconclusive [inhibitor, single point] | –
60 | Cc1cccc(C)c1-n1nnnc1C(c1cccc2ccccc12)N1CCC2(CC1)C(=O)NCN2c1ccccc1 (stereo unspecified) | active: 18.4 µM | –
61 | CCOc1ccc2nc(N=Nc3c(O)[nH]c(=S)[nH]c3=O)sc2c1 | inactive | –
62 | CC(C)[C@]1(O)[C@@H](OC(=O)c2ccc[nH]2)[C@@]2(O)[C@@]3(C)C[C@]4(O)O[C@@]5([C@H](O)[C@@H](C)CC[C@]35O)[C@@]2(O)C41C | inactive | –
63 | CC(=O)OCC1=C(C(=O)O)N2C(=O)C(NC(=O)CCCC(N)C(=O)O)C2SC1 (stereo unspecified) | inconclusive [inhibitor, single point] | –
64 | C[C@@H]1CC[C@H]2[C@@H](C)C(=O)O[C@@H]3O[C@@]4(C)CC[C@@H]1[C@]32OO4 | active: 291 nM and active: 651 nM | –
65 | C1=C(c2ccccc2)CCNC1 | inactive | –
66 | CCOC(=O)[C@]12Cc3ccc4ccccc4c3[C@H]1N(Cc1ccccc1)C(=O)c1ccccc12 | inconclusive [inhibitor, single point] | –
67 | O=C1C2CCCN2C(c2ccc(Cl)cc2)N1c1ccccn1 (stereo unspecified) | inactive | –
68 | COC(=O)C1=C(c2cc3ccccc3s2)C[C@@H]2CC[C@H]1N2C(=O)NCc1cccc2ccccc12 | inconclusive [inhibitor, single point] | –
69 | O=C(NCc1cccnc1)Nc1ccc([N+](=O)[O-])cc1 | inconclusive [inhibitor, single point] | –
70 | Cc1c(C)c2ccc(OCC(=O)N3C[C@H]4C[C@@H](C3)c3cccc(=O)n3C4)cc2oc1=O | inactive | –
71 | Cc1cccc(N2C(=O)NC(=O)/C(=C\c3cccn3-c3ccc(Cl)cc3)C2=O)c1 | active: 10.3 µM | –
